Data from PubChem BioAssay AID743262 (National Center for Advancing Translational Sciences (NCATS), 2014).
Screen size: about 1,300 compounds; about 25 (2%) were called active. Inconclusive results (about 9%) are left out. Calls follow the shape of the dose curve; as a rule, active = well fitted activation curve with a large enough effect; inconclusive = small, poorly fitted or top-dose-only effect; inactive = flat fitted curve, though single readings scatter. The list shows a part of the results.

What follows are compounds tested against Glucagon-like peptide 1 receptor (Homo sapiens) (UniProt P43220) (assay: qHTS of GLP-1 Receptor Agonists: Hit Validation). Details: HEK293 GLP-1R, cAMP-response luciferase, 4-6 h; series mostly up to 46.1 µM; activation: at the top concentration.
Sequence of UniProt P43220 (P43220 whole entry, looked up): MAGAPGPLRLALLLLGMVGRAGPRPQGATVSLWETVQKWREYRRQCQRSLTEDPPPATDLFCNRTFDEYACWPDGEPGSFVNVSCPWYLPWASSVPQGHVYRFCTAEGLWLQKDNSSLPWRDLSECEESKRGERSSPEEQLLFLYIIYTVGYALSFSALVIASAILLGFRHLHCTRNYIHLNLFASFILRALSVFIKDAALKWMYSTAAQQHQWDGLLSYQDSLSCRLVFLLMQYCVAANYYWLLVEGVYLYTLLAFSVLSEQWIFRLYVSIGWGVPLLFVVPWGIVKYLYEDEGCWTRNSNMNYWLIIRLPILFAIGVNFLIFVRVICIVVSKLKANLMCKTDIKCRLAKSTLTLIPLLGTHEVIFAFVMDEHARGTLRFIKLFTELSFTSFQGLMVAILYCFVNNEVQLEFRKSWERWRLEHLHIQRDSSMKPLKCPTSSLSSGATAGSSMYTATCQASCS
In short: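 Luminescence from a cAMP-responsive luciferase reporter was read 12 min after detection reagent at RT. Before that, HEK293 cells stably expressing GLP-1R plus reporter, seeded 12 h earlier, were exposed to compound for 4-6 hr at 37 deg C.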
For activation in this document: % of control where 0% means no effect.
Potency is read from the fitted curve at half-maximal effect.

Compound | activation | Potency
CC(=O)NCCC(=O)Nc1sc2c(c1-c1nc3ccccc3[nH]1)CCCC2 | inactive: -0.803% | –
Cc1ccsc1-c1nc(CN2CCN(C)C(=O)[C@@H]2C)c(C)o1 | inactive: -0.276% | –
COc1ccc(N2CCc3c(C)nc(SC)nc32)cc1 | inactive: 14.9% | –
CCOc1ccc(Cc2nc(N)nc(N)n2)cc1 | inactive: -0.22% | –
COc1ccc(/C=N/N(C)C2=NS(=O)(=O)c3ccccc32)cc1OC | inactive: 2.14% | –
CCCCCCn1c(SCC(C)C)nc2c1c(=O)[nH]c(=O)n2C | inactive: 12.1% | –
CCOC(=O)c1sc(N)c(C(=O)OCC)c1C | inactive: 5.1% | –
CC(C)Sc1nc2c(c(=O)[nH]c(=O)n2C)n1Cc1ccc(Cl)cc1 | inactive: 27.8% | –
O=C(CCC(=O)N1CCc2ccccc21)Nc1ccccc1 | inactive: -0.0927% | –
COc1ccc(-c2csc(C3=C(O)CN(CCCN4CCCC4=O)C3=N)n2)cc1OC | inactive: 7.13% | –
NS(=O)(=O)c1ccc(CNc2nc(-c3cccnc3)nc3ccccc23)cc1 | inactive: 8.69% | –
CCOC(=O)c1c(C)nc2cc(C)ccn12 | inactive: 2.36% | –
CCOC(=O)C1=C(N)OC2=C(C(=O)CC(C)(C)C2)C1c1ccc(CC)s1 (stereo unspecified) | inactive: -0.682% | –
Nc1cc2c(cc1C(=O)c1ccc(Cl)cc1)OCCO2 | inactive: 25% | –
CC1CCN(CCCNC(=O)c2cc3c(Cl)nc4ccccc4c3s2)CC1 | inactive: 4.09% | –
CCOc1ccc(-c2nc(CSc3nncs3)cs2)cc1OC | inactive: 6.73% | –
CNS(=O)(=O)c1ccc2c3c(cccc13)C(=O)N2 | inactive: 6.82% | –
CCN1CCN(C2=C(Cl)C(=O)N(Cc3ccccc3)C2=O)CC1 | inactive: 4.15% | –
COc1cc(-c2cc3nc4ccccc4n3c(N)c2C#N)cc(OC)c1OC | inactive: 11.5% | –

Compound | activation | Potency
COc1ccc(-c2sc3cc(OC)c(OC)cc3c2C#CC(C)(C)O)cc1 | inactive: 2.66% | –
COc1cccc(C(C)(O)c2nc(-c3ccc(OC)c(OC)c3)cs2)c1 (stereo unspecified) | inactive: 12% | –
CCC(C)Nc1nc(N)c([N+](=O)[O-])c(Nc2ccccc2OC)n1 (stereo unspecified) | inactive: 25.2% | –
COc1ccc(CN(C(=O)c2cc(=O)c3cc(C)cc(C)c3o2)C2CCS(=O)(=O)C2)cc1 (stereo unspecified) | inactive: 3.75% | –
COc1ccc(-c2ccc(SCC(=O)N3CCCC3)nn2)cc1OC | inactive: 3.81% | –
CCc1nc(SCCO)c2oc3ccccc3c2n1 | inactive: 3.96% | –
COc1ccc(OC)c(-c2nnc3n2N=C(c2ccc(OC)c(OC)c2)CS3)c1 | – | active: 1.64 µM
O=C(CNCC1CCCO1)Nc1ccccc1N1CCCCCC1 (stereo unspecified) | inactive: -0.276% | –
COc1ccc(CNC(=O)c2ccc(-c3cnn(C)c3)c3ccoc23)cc1OC | inactive: 14.6% | –
O=C(c1ccccc1)c1cccc2ccccc12 | inactive: 0.431% | –
CCN(CC)C(=O)CCNS(=O)(=O)c1ccc(C)cc1 | inactive: -1.94% | –
CCOC(=O)c1oc2ccc(Br)cc2c1NC(=O)CN1CCN(C)CC1 | inactive: 4.16% | –
COC(=O)c1ccc(CSc2nc(C(F)F)cc(C)c2C#N)o1 | inactive: 5.32% | –
COc1ccc(O)c(C(=O)c2cnn(-c3ccccn3)c2)c1 | inactive: 0.589% | –
COc1cccc(OC)c1C(=O)Nc1ccc(C(=O)c2ccncc2)cc1 | inactive: -0.423% | –
N#Cc1cc([N+](=O)[O-])cnc1Nc1ccccc1 | inactive: 5.15% | –
Cc1nccn1CC1CCc2c(c3ccccc3n2C)C1=O (stereo unspecified) | inactive: -1.07% | –
Cc1oc(-c2ccc(C(=O)NCc3ccccc3Cl)cc2)nc1CN1CCc2ccccc21 | inactive: -0.177% | –
CCOC(=O)c1[nH]c(C)c(C(=O)c2cc(F)ccc2F)c1C | inactive: 17% | –

Compound | activation | Potency
COCc1cccc(-c2csc(C(C)(O)c3cccc(F)c3)n2)c1 (stereo unspecified) | inactive: 0.448% | –
COc1cccc(C(=O)NCC2(c3ccc(OC)c(OC)c3)CCCC2)c1 | inactive: 2.91% | –
Cc1ccc(S(=O)(=O)n2c3ccc(Cl)cc3c3nc(C)sc32)cc1 | inactive: 4.2% | –
CCN(c1ccccc1)c1ncnc2c1cnn2-c1ccccc1 | inactive: 7.22% | –
O=C(c1cccc(Cl)c1)N1CCCC(c2ccc(Cl)cc2)=N1 | inactive: 19.8% | –
COc1cc(/C=C2\SC(=Nc3ccccc3)N(Cc3ccco3)C2=O)ccc1OC(C)C(=O)O (stereo unspecified) | inactive: 8.23% | –
Cc1nn2c(NCCOCCO)c3c(nc2c1-c1ccccc1)CCCC3 | inactive: 6.35% | –
CCOC(=O)C1(COCc2ccccc2)CCCCC1=O (stereo unspecified) | inactive: -0.662% | –
CN(C)c1nc(N)c([N+](=O)[O-])c(NCC2CCCO2)n1 (stereo unspecified) | inactive: 6.97% | –
CCOC(=O)c1[nH]c(C)c(C(=O)OCC(=O)Nc2sc3c(c2C#N)CCCCC3)c1C | inactive: 0.323% | –
CCCCCn1c(-c2ccco2)nc2nc3ccccc3nc21 | inactive: 12.9% | –
CCCCN(CCO)c1ncnc2sc(-c3ccccc3)cc12 | inactive: 12.4% | –
CCn1c(=NC(=O)c2cccc(N3C(=O)CCC3=O)c2)sc2c(C)ccc(OC)c21 | inactive: 18.3% | –
COC(=O)c1c(-c2ccncc2)csc1NC(=O)c1ccoc1C | inactive: 8.04% | –
CCOC(=O)N1CCN(C(=S)NC2CCCCC2)CC1 | inactive: 0.277% | –
O=C(CCCOc1ccc(Cl)cc1Cl)N/N=C/c1ccccc1 | inactive: 15.8% | –
COc1ccc(C2=NOC(COc3ccc4c(C)cc(=O)oc4c3)C2)c(OC)c1 (stereo unspecified) | inactive: 29.5% | –
CC1(C)CC(=O)C=C(c2cccc3c2sc2ccccc23)C1 | inactive: 6.77% | –
